Experimental data reported in PubChem BioAssay AID463173 (ICCB-Longwood Screening Facility, Harvard Medical School, 2010).
The whole screen tested about 52,000 compounds, of which about 1,700 (3.3%) were called active. No stated cut-off is given here; in the data, active means survival mostly below about 52% (no sharp cut-off); inactive means mostly above about 56%. Some of the results follow.

Tested on: Wild type
Assay: growth inhibition of S. aureus wild type versus tarO mutant, primary screen, teichoic acid synthesis inhibitors, RN4220, OD600 (AID 463173)
Conditions: S. aureus RN4220 wild type/DeltatarO growth, OD600, 18 h, stronger effect = lower value, screened at 18.75 µg/mL (by protocol)

Row | Structure (SMILES) | survival
1 | O=C(O)c1ccc2c(c1)ncn2-c1ccc(F)c(F)c1 | inactive: 82%
2 | COc1cccc(N2CCN(C(=O)C(CCSC)NS(=O)(=O)c3ccc4c(c3)oc(=O)n4C)CC2)c1 (stereo not given) | inactive: 124%
3 | CCc1ccc(CNC(=O)Cc2ccc(NC(=O)N3CCSc4ncccc43)cc2)cc1 | inactive: 87%
4 | CCOC(=O)CSc1nc2ccc(NC(=O)c3ccc(C)cc3)cc2s1 | inactive: 88%
5 | OC1CN=C2C=CC=CN2C1 (stereo not given) | inactive: 110%
6 | COc1ccc(NC(=O)C2=C(C)Nc3ncnn3C2c2ccc(O)cc2)cc1 (stereo not given) | inactive: 75%
7 | CCCc1cc(=O)n(-c2ccc(C(=O)O)cc2)[nH]1 | inactive: 111%
8 | Cc1ccc(C)c(NC(=O)c2ccc3c(O)c(S(=O)(=O)c4ccc(Cl)cc4)c(=O)[nH]c3c2)c1 | inactive: 86%
9 | CCN(CC)c1nn2c(=O)c(C(=O)NCCc3ccccc3)cnc2s1 | inactive: 59%
10 | Cc1cc2c(cc1S(=O)(=O)NCc1ccccc1Cl)OCCN2C | inactive: 105%
11 | O=C(O)C1CCCCC1C(=O)N1CCCCCC1 (stereo not given) | inactive: 108%
12 | COc1ccc(OC)c(NC(=O)c2cc3c(=O)oc4ccccc4c3s2)c1 | inactive: 103%
13 | CCCCSCCCNC(=O)CN1C(=O)c2cccnc2Oc2ccc(Cl)cc21 | inactive: 67%
14 | CCOc1ccc(-c2nonc2NC(=O)c2oc3cc(C)ccc3c2C)cc1 | inactive: 85%
15 | Cc1ccc(S(=O)(=O)N(CC(=O)N2CCC(C(N)=O)CC2)c2ccccc2F)cc1 | inactive: 98%
16 | Cc1ccccc1C(=O)N/C(=C/c1ccc(-c2cccnc2Cl)o1)C(=O)NC1CC1 | inactive: 115%
17 | O=C(NCc1ccc(F)cc1)c1ccc2c(Cl)c3c(nc2c1)CCCC3 | inactive: 62%
18 | CCc1nc2c(Cl)cc(Cl)cc2c(=O)o1 | inactive: 102%
19 | Fc1ccc(-c2noc3ncnc(N4CCN(c5ccccc5)CC4)c23)cc1 | inactive: 82%
20 | COc1ccc(S(=O)(=O)N2CCN(c3ccccc3F)CC2)cc1-c1noc(C)n1 | inactive: 100%
21 | COc1ccc(NC(=O)C2CCN(S(=O)(=O)c3ccc4[nH]c(=O)ccc4c3)CC2)c(OC)c1 | inactive: 87%
22 | Cc1cn2c(=O)cc(COc3cccc(NC(=O)c4ccccc4C)c3)nc2s1 | inactive: 81%
23 | CC(=O)N1CCOc2cc(S(=O)(=O)Nc3cccc(C(F)(F)F)c3)c(Cl)cc21 | inactive: 93%

Row | Structure (SMILES) | survival
24 | CCOC(=O)c1ccccc1NC(=O)C(=O)Nc1ccc2nc3n(c(=O)c2c1)CCCCC3 | inactive: 123%
25 | CCc1cccc(-n2c(C)nc3c(cnn3-c3ccc(Cl)cc3)c2=O)c1 | active: -2%
26 | N#CC(C#N)=C1CCCCCN1 | inactive: 109%
27 | CCOC(=O)c1c(-c2ccccc2)oc2ccc(N(C(C)=O)S(=O)(=O)c3cc(C)ccc3C)cc12 | inactive: 85%
28 | Cc1cc(C)cc(NC(=O)N2CCC(N3CCCCC3)CC2)c1 | inactive: 103%
29 | COc1ccc(OC)c(NC(=O)Cc2coc3ccc(C(C)C)cc23)c1 | inactive: 91%
30 | CCOC(=O)c1[nH]c(C)c(CCC(=O)NCc2ccccc2)c1C | inactive: 73%
31 | Cc1ccc(O)c(C(CC(=O)NCC2(c3ccccc3)CCCC2)c2ccccc2)c1 (stereo not given) | active: 6%
32 | CCc1c(C)nc(SCC(=O)N2CCN(c3ccccc3OC)CC2)[nH]c1=O | inactive: 90%
33 | CC(=O)Nc1ccc(S(=O)(=O)N2CCC(NC(C)=O)(c3cccc(F)c3)CC2)cc1 | inactive: 107%
34 | CCOc1ccc(CNC(=O)C2CCN(c3nnc(-n4cccc4CNc4ccc(C)cc4)s3)CC2)cc1OC | inactive: 93%
35 | O=C(O)Cn1cc(C=C2C(=O)NC(=S)NC2=O)c2ccccc21 | inactive: 108%
36 | CCOC(=O)c1ccccc1NC(=O)Cn1cc(C(=O)c2cccc(OC)c2)c(=O)c2ccc(C)nc21 | inactive: 58%
37 | CCOC(=O)c1c(C)[nH]c(CCC(=O)NCCCN2CCN(c3ccc(F)cc3)CC2)c1C | inactive: 70%
38 | Cc1ccc(CCNC(=O)c2ccc3c(c2)N(Cc2cccc(C)c2)C(=O)c2ccccc2S3(=O)=O)cc1 | inactive: 88%
39 | COc1ccc2cc(CNC3CCCCC3)c(=O)[nH]c2c1 | inactive: 108%
40 | CC(C)c1ccc(NC(=O)c2cc3c(s2)-c2ccccc2SC3)cc1 | inactive: 91%
41 | Cc1cccc(-c2nc(S(=O)(=O)c3ccc(F)cc3)c(N3CCN(c4ccccc4)CC3)o2)c1 | inactive: 113%
42 | O=C(CN1C(=O)COc2ccc(S(=O)(=O)N3CCCCCC3)cc21)NCc1ccc(Cl)cc1 | inactive: 132%
43 | Cc1cc(=O)[nH]c2nnc(SCC(=O)NC(C)(C)C)n12 | inactive: 73%
44 | COc1cc2c(cc1OC)C(COc1ccccc1OC)N(C(=O)CC(C)C)CC2 (stereo not given) | inactive: 82%
45 | O=C(Nc1ccc2oc(=O)ccc2c1)c1cccc(F)c1 | inactive: 106%
